PMC4858158
These are yes or no findings as the source states them, for the method shown. Binding seen in cells or lysates may run through a third protein. Some results given as binding are weak or reduced against the parent protein; the word gives no strength. One block for each molecule: values may come before it.

Amino acid sequences for entries named in this document (tags omitted).
UniProt Q9EPU0: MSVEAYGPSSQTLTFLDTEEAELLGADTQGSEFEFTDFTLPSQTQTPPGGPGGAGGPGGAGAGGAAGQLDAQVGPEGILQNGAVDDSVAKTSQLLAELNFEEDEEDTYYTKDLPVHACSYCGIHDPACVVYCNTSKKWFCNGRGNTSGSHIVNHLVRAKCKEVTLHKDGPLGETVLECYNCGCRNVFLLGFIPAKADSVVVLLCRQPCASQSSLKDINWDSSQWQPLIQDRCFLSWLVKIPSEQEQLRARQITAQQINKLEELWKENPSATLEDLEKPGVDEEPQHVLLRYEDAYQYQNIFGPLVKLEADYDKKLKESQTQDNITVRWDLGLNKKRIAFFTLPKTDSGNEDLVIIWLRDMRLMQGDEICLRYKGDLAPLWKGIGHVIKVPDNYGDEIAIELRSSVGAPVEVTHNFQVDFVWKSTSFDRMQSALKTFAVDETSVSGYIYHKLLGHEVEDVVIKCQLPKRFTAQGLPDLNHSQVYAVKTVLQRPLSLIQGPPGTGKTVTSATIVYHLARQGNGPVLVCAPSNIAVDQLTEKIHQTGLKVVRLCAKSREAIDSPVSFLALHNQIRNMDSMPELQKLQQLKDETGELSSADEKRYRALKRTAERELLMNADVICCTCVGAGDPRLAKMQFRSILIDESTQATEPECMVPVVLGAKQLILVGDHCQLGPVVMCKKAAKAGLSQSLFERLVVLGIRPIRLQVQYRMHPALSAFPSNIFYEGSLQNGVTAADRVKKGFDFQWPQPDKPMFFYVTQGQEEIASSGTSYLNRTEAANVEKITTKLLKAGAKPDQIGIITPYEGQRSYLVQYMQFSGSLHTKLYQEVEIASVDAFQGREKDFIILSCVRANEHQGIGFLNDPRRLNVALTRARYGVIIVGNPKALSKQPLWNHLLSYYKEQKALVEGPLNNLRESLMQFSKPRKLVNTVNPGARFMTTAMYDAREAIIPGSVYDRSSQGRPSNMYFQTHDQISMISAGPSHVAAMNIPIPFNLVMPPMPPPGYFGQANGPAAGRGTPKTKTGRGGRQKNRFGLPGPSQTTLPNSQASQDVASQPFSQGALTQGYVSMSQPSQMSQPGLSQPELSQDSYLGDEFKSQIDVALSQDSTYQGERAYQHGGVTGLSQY
UniProt P61407: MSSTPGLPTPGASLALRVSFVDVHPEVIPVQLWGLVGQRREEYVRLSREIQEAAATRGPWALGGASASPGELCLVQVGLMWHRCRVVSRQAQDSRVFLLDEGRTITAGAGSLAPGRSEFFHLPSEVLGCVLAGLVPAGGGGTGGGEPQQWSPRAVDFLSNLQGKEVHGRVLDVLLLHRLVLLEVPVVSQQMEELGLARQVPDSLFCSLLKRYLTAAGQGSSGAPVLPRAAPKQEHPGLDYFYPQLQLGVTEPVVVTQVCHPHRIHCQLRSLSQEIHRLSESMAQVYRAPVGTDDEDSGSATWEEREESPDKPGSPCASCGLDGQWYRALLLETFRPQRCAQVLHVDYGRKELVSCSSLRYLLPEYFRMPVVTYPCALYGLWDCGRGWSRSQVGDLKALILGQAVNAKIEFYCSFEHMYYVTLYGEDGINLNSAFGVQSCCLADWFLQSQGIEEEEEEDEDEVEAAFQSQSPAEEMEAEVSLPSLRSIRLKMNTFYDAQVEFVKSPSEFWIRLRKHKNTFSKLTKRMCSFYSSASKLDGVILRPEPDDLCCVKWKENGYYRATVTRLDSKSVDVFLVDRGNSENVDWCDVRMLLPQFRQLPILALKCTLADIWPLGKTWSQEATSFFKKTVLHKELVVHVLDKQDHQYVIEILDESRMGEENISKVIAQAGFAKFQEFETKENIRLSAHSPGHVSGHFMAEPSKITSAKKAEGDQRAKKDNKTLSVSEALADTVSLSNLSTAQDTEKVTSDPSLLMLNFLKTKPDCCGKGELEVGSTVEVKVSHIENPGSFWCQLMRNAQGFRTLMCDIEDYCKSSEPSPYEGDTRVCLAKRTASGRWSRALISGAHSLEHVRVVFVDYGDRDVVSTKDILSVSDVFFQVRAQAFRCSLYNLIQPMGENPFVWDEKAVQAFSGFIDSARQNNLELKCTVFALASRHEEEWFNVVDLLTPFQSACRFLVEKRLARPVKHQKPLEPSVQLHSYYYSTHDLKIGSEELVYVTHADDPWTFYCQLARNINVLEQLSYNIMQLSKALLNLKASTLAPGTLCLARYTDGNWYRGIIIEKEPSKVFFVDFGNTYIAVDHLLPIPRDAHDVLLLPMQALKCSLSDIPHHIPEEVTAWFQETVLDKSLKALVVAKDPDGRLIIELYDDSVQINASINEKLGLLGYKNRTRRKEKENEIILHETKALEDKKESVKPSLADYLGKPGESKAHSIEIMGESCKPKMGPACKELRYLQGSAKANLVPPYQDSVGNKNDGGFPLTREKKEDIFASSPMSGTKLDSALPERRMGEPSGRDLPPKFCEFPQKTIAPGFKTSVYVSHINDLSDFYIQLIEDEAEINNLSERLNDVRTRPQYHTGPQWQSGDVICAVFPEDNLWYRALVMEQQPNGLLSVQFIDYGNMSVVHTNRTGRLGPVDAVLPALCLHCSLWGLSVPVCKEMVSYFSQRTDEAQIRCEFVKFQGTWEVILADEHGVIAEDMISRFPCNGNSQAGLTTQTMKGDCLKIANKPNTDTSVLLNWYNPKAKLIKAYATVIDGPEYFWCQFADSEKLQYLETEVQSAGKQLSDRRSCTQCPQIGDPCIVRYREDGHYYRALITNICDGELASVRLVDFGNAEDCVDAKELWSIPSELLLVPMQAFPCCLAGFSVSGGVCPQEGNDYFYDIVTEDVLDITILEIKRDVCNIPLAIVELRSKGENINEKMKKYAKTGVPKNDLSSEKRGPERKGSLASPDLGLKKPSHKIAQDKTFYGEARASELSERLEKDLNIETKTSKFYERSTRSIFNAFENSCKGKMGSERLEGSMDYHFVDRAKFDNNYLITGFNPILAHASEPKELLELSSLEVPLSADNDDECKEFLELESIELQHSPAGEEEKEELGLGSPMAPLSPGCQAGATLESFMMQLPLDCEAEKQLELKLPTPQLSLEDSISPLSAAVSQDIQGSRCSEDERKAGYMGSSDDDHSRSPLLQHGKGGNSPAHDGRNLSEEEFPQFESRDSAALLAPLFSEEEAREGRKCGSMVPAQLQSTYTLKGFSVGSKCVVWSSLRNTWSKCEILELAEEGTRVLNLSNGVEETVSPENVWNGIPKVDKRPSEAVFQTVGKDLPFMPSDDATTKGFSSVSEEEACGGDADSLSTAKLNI

Assays:
[1] = biological target: T1, MVH(DDX4) (mouse (endogenous in round spermatids)) (UniProt Q61496); experiment: co-IP; lysate (RIPA, diluted in IP buffer: 50 mM Tris-HCl pH 7.4, 150 mM NaCl, 0.25% Triton-X100, 1 mM EDTA) of round spermatids fixed in 1% PFA, from Tdrd6^+/- mice (Tdrd6^-/- in parallel); antibodies to MVH, TDRD6, UPF1 or UPF2 coupled to Dynabeads; with or without RNAse A; immunoblot
T1 sequence: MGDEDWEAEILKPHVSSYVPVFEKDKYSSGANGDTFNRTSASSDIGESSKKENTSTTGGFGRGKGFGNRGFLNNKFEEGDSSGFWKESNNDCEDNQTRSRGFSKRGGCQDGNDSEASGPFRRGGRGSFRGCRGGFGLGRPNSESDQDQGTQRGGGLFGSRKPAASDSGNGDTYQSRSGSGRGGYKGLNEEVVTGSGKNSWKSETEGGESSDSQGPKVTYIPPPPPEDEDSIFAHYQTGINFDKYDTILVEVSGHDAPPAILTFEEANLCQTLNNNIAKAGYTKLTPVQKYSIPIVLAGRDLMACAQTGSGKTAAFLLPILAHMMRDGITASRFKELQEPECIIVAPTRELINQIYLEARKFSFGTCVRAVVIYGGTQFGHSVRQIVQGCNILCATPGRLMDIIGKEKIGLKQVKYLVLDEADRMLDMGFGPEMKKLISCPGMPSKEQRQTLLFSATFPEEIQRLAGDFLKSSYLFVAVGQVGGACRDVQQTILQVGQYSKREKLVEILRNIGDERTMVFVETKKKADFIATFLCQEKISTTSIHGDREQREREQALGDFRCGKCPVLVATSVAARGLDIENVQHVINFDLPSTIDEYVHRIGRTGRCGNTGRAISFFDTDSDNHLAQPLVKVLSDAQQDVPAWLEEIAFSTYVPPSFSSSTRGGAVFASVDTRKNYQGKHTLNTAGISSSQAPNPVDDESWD

[2] = biological target: UPF1 (mouse (endogenous in round spermatids)) (UniProt Q9EPU0); experiment: as above
[3] = biological target: T2, UPF2 (mouse (endogenous in round spermatids)) (UniProt A2AT37); experiment: as above
T2 sequence: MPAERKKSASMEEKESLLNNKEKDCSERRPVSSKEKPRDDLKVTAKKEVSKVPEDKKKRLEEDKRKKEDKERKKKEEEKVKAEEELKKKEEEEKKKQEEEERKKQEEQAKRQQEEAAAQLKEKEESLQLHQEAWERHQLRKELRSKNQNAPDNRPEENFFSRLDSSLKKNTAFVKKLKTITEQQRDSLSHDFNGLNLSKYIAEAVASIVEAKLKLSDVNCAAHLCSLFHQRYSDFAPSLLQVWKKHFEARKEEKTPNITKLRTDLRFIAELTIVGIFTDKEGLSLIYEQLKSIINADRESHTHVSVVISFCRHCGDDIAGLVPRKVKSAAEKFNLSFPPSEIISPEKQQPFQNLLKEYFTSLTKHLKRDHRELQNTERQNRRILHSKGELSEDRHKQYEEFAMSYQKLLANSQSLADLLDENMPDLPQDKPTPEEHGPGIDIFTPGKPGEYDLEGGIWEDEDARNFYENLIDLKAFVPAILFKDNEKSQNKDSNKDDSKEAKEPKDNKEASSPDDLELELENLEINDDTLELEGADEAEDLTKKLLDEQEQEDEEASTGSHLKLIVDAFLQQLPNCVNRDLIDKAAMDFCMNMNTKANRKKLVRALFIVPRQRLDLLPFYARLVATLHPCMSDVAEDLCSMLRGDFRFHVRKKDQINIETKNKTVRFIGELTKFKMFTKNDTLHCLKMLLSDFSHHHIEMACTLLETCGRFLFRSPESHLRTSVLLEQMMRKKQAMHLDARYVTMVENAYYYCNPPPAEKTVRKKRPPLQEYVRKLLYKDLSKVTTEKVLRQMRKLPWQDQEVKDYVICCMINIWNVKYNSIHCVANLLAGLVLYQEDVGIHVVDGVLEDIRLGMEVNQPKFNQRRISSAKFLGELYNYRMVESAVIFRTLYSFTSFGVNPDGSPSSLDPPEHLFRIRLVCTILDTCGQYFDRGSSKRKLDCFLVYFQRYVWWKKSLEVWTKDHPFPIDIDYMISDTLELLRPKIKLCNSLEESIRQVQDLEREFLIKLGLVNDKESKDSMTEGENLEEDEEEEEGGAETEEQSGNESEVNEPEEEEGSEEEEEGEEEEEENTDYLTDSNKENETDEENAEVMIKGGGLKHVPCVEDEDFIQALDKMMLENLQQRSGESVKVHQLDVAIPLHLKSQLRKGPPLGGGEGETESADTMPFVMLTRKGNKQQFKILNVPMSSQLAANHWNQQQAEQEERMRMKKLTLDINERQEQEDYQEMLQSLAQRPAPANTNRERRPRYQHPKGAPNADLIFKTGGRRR

[4] = biological target: T2, UPF2 (mouse (endogenous in round spermatids)); experiment: co-IP; as a1, lysate of round spermatids from Tdrd6^-/- mice (no TDRD6)
[5] = biological target: Tudor-domain containing protein 6 (TDRD6) (mouse (endogenous in round spermatids)) (UniProt P61407); experiment: co-IP; lysate (RIPA, diluted in IP buffer: 50 mM Tris-HCl pH 7.4, 150 mM NaCl, 0.25% Triton-X100, 1 mM EDTA) of round spermatids fixed in 1% PFA, from Tdrd6^+/- mice (Tdrd6^-/- in parallel); antibodies to MVH, TDRD6, UPF1 or UPF2 coupled to Dynabeads; with or without RNAse A; immunoblot
[6] = biological target: UPF1 (mouse (endogenous in round spermatids)) (UniProt Q9EPU0); experiment: co-IP; as a1, lysate of round spermatids from Tdrd6^-/- mice (no TDRD6)
[7] = biological target: UPF1 (mouse (endogenous in round spermatids)) (UniProt Q9EPU0); experiment: as above; remark: listed apart in the source

Molecule: Tudor-domain containing protein 6 (TDRD6) (from UniProt P61407 1-2134)
binding [1]: binds | binding [2]: binds | binding [3]: binds

Molecule: UPF1 (from UniProt Q9EPU0 1-1124)
binding [4]: binds weakly | binding [5]: binds

More lines, main results first:

binding [5]: binds | binding [3]: binds
B1: MVH(DDX4) (protein, UniProt Q61496 1-702)
chain: T1 sequence

binding [6]: binds weakly | binding [1]: binds | binding [5]: binds
B2: UPF2 (protein, UniProt A2AT37 1-1269)
chain: T2 sequence
binding [7]: no binding (condition: Tdrd6^-/- spermatids (no TDRD6))
